Laboratory results reported in paper PMC4336329 (PLoS ONE, 2015).
The whole screen tested about 310,000 compounds, of which about 14,000 (4.5%) showed an effect of 50% or more. The effect is printed as a negative number. Some of the results follow.

Biological target: human ether-à-go-go-related gene (hERG) potassium channel (human, UniProt Q12809)
Test: primary screen, population patch clamp on CHO cells stably expressing hERG
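Further: peak tail current of the secondary pulse compared with the same well before compound.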

human ether-à-go-go-related gene (hERG) potassium channel, sequence (Q12809 whole entry, looked up): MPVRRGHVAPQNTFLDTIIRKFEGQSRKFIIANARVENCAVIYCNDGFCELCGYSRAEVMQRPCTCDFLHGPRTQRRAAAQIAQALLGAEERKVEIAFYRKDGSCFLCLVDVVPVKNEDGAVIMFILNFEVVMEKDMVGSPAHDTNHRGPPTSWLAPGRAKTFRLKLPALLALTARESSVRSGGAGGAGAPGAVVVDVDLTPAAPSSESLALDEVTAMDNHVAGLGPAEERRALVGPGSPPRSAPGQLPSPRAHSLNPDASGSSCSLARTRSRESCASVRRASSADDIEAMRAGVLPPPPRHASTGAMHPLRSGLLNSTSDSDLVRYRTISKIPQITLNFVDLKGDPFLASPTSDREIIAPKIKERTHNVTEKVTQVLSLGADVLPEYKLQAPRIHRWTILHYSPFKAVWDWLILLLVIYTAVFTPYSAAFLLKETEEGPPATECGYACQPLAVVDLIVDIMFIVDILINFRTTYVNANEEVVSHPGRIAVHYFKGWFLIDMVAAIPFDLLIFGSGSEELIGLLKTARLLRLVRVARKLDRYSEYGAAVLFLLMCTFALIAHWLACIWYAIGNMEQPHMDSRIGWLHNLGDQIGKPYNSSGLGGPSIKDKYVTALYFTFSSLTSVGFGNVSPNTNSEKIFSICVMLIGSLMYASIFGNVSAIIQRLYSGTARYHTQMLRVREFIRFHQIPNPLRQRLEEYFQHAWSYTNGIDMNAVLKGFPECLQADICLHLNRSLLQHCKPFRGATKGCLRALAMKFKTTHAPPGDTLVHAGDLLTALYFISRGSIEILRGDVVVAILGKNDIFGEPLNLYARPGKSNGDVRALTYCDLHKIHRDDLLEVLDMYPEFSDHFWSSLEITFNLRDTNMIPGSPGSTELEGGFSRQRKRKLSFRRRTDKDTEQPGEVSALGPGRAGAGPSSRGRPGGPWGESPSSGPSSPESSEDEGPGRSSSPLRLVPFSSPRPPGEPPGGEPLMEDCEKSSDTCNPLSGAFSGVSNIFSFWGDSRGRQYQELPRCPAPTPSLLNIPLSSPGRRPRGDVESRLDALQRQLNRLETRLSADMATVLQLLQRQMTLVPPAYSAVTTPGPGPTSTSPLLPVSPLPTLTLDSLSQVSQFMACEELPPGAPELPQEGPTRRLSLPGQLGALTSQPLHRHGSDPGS

First: O=C1S/C(=C/c2ccc(N3CCOCC3)o2)C(=O)N1Cc1c(F)cccc1Cl
Second: O=C(c1ccc2c(c1)C(=O)N(Cc1ccco1)C2=O)N1CCOCC1
The “hERG current change (%, negative = inhibition) at 10uM” value of the first is lower: -0.91% for the first, 4.54% for the second.

Compared with `Oc1ccccc1CN1CCCC(N2CCN(c3cccc(C(F)(F)F)c3)CC2)C1` (centres unmarked), `CC1CC(=O)Nc2ccccc2N1C(=O)CN1CCN(c2ccccc2)CC1` (centres unmarked) is higher in “hERG current change (%, negative = inhibition) at 10uM” value: -61.9% for the first, 2.87% for the second.

First: CC(CN1CCOCC1)OC(=O)Cc1ccccc1.Cl (centres unmarked)
Second: CC(NC(=O)CN1CCOCC1)c1ccc(F)cc1 (centres unmarked)
The “hERG current change (%, negative = inhibition) at 10uM” value of the first is lower: 8.44% for the first, 10.6% for the second.

First: CC(C)(C)c1ccc(OCCC(=O)OCC(=O)NC2CC2)cc1
Second: COC(=O)C1CCN(C(=O)COC(=O)CC(NC(N)=O)c2ccc(Cl)cc2)CC1 (centres unmarked)
The “hERG current change (%, negative = inhibition) at 10uM” value of the first is lower: -3.17% for the first, 3.08% for the second.

Going from `Clc1cccc(CN2CCN(c3nc4nonc4nc3NC3CC3)CC2)c1` to `COc1ccc(OC)c(Nc2nc3nonc3nc2N2CCCC(C)C2)c1` (centres unmarked), the “hERG current change (%, negative = inhibition) at 10uM” value rises from -65.4% to 14.3%.

Compared with `Cc1ccc(Cn2cnc3c(cnn3C(C)(C)C)c2=O)cc1`, `CCc1ccc(-n2ccc(=O)c(C(=O)O)n2)cc1` is higher in “hERG current change (%, negative = inhibition) at 10uM” value: 4.92% for the first, 18.8% for the second.

Compared with `CCOC(=O)c1c(NC(=O)CSc2nnc3c(n2)[nH]c2ccccc23)sc2c1CCN(C)C2`, `CCCCOC(=O)Nc1nnc(CC(=O)NCc2ccccc2)s1` is higher in “hERG current change (%, negative = inhibition) at 10uM” value: -6.08% for the first, 4.3% for the second.

Going from `Cn1c(CCc2ccccc2)nnc1SCC(N)=O` to `COc1ccccc1CNC(=O)CSc1ccc(-c2ccccn2)nn1`, the “hERG current change (%, negative = inhibition) at 10uM” value falls from 15.3% to -17.9%.

Going from `COC(=O)C(C)Oc1ccc2cc(-c3ccccc3)c(=O)oc2c1` (centres unmarked) to `COC(=O)c1nn(-c2ccccc2)c(=O)cc1Oc1ccc(Cl)cc1`, the “hERG current change (%, negative = inhibition) at 10uM” value falls from 11.8% to -13.6%.

Going from `Cc1ccc(Cl)cc1NC(=O)CCC(=O)Nc1cc(Cl)ccc1C` to `CCN(CC)S(=O)(=O)c1ccc(C)c(NC(=O)COc2ccc(Cl)cc2Br)c1`, the “hERG current change (%, negative = inhibition) at 10uM” value falls from 19.8% to 1.38%.

First: Cc1ccc(C(C(=O)NC2CCCCC2)N(Cc2ccco2)C(=O)Cn2cnc3ccccc32)cc1 (centres unmarked)
Second: Cc1ccc(N(C(=O)CNC(=O)c2ccco2)C(C(=O)NC2CCCCC2)c2ccncc2)c(C)c1 (centres unmarked)
The “hERG current change (%, negative = inhibition) at 10uM” value of the first is lower: -18.8% for the first, 8.01% for the second.

First: Cc1ccc(/C=C/c2onc(C)c2S(=O)(=O)N2CCC(C(=O)NC(C)(C)C)CC2)cc1
Second: CCCC(=O)c1ccc(N2CCN(S(=O)(=O)c3ccc(C)cc3)CC2)c(F)c1
The “hERG current change (%, negative = inhibition) at 10uM” value of the first is lower: -4.05% for the first, 8.43% for the second.

Going from `CC1(C)CC(=O)c2c(O)cc(OCc3ccc([N+](=O)[O-])cc3)cc2O1` to `O=C(COC(=O)c1ccco1)Nc1ccc([N+](=O)[O-])cc1Cl`, the “hERG current change (%, negative = inhibition) at 10uM” value falls from 15.1% to 7.09%.

First: Cc1cc(Sc2nnc(/N=C/N(C)C)s2)c2ccccc2n1
Second: Cc1ccc(OCCn2nnc3ccccc32)cc1C
The “hERG current change (%, negative = inhibition) at 10uM” value of the first is higher: 8.63% for the first, -8.01% for the second.

Going from `Cc1nn(C2CCS(=O)(=O)C2)c(Cl)c1/C=C/C(=O)OCC(=O)Nc1ccccc1[N+](=O)[O-]` (centres unmarked) to `CC(C)CCn1c(SCC(=O)NC2CCS(=O)(=O)C2)nc2cc(Cl)ccc2c1=O` (centres unmarked), the “hERG current change (%, negative = inhibition) at 10uM” value falls from 23% to 2.16%.

First: O=C(Cn1cnc2ccccc21)N/N=C/c1cccs1
Second: CC(=O)Nc1ccc(Cc2nc3ccccc3[nH]2)cc1
The “hERG current change (%, negative = inhibition) at 10uM” value of the first is lower: 12.4% for the first, 23.5% for the second.

Going from `CCC(C)[C@@H](CN(N=O)[C@@H](Cc1ccccc1)CN(C)N=O)N(CCc1ccccc1)N=O.[Na+]` (some centres unmarked) to `c1ccc(OCc2nc(-c3ccccc3)no2)cc1`, the “hERG current change (%, negative = inhibition) at 10uM” value rises from -4.74% to 6.52%.

Going from `N#C/C(=C\c1ccc(F)cc1)c1n[nH]c(Cn2cncn2)n1` to `Cc1ccccc1CS(=O)(=O)c1ncc(Cl)c(C(=O)Nc2ccc(F)cc2)n1`, the “hERG current change (%, negative = inhibition) at 10uM” value rises from 17.8% to 36.1%.

Going from `Nc1ccc(C(=O)OCC(=O)Nc2ccc([N+](=O)[O-])cc2C(F)(F)F)cc1` to `C/C(=N\NC(=O)C1CC1c1ccccc1)c1cccc([N+](=O)[O-])c1` (centres unmarked), the “hERG current change (%, negative = inhibition) at 10uM” value rises from -15.8% to 7.21%.

Going from `O=C(NC1CCCCC1)c1cc2cc(Br)ccc2o1` to `O=C(CSc1nc(C2CCCCC2)nc2ccccc12)NCc1ccc2c(c1)OCO2`, the “hERG current change (%, negative = inhibition) at 10uM” value falls from 22.5% to 15.4%.

Going from `Cc1cccc(N2CCN(C(=O)Cc3ccc(-n4c(=O)[nH]c5ccsc5c4=O)cc3)CC2C)c1` (centres unmarked) to `O=[N+]([O-])c1ccccc1-c1ccc(C(=S)N2CCN(c3ccccc3)CC2)o1`, the “hERG current change (%, negative = inhibition) at 10uM” value rises from 0.143% to 22.5%.

First: COc1cc2c(cc1OC)-c1cc(N3CCc4ccccc43)nc(=O)n1CC2
Second: COc1ccc(OC)c(-c2nn(-c3ccccc3)cc2C(=O)N2CCc3ccccc3C2)c1
The “hERG current change (%, negative = inhibition) at 10uM” value of the first is higher: 11.7% for the first, 2.08% for the second.

Going from `COc1cccc(NC(=O)c2c(F)cccc2F)c1` to `COc1ccc(C(=O)Nc2ccc3ccccc3n2)cc1OC`, the “hERG current change (%, negative = inhibition) at 10uM” value rises from -6.78% to 15.2%.

Compared with `CCOCCCNC(=O)c1ccc(CS(=O)(=O)Cc2ccccc2F)o1`, `CCC1SC(CC)C(=O)N(CC(=O)NCc2ccc(F)cc2)C1=O` (centres unmarked) is higher in “hERG current change (%, negative = inhibition) at 10uM” value: -11% for the first, -7.78% for the second.

Going from `Cn1c(=O)c2c(nc(Oc3cccc(Br)c3)n2C)n(C)c1=O` to `CCN1C(=O)CC(n2c(C)nc3ccccc32)C1=O` (centres unmarked), the “hERG current change (%, negative = inhibition) at 10uM” value rises from -5.17% to 6.2%.

Compared with `CCOC(=O)c1sc(=NC(=O)c2ccc(S(=O)(=O)N(C)c3ccccc3)cc2)n(C)c1C`, `CCN(C(=O)CSc1cc(-c2ccccc2)c2ccc(OC)cc2n1)C1CCS(=O)(=O)C1` (centres unmarked) is lower in “hERG current change (%, negative = inhibition) at 10uM” value: 14.7% for the first, -14.2% for the second.

Going from `O=C(CCn1c(=S)[nH]c2cc3c(cc2c1=O)OCO3)NCc1cccc(Cl)c1` to `O=C(CSc1ccc(Cl)cc1)Nc1cccc(-c2nc3ccccc3[nH]2)c1`, the “hERG current change (%, negative = inhibition) at 10uM” value rises from 14.7% to 15.7%.

First: COc1ccccc1N1CCN(c2ncc(C(=O)N3CCN(c4cccc(Cl)c4)CC3)c3ccccc23)CC1
Second: O=C(COc1ccc2ccccc2c1)N1CCN(c2ccccc2O)CC1
The “hERG current change (%, negative = inhibition) at 10uM” value of the first is lower: -10.7% for the first, 2.1% for the second.

Compared with `COc1nc(C)ccc1-c1noc(-c2ccncc2)n1`, `COc1ccc(OC)c(-n2c(-c3cccc(O)c3)n[nH]c2=S)c1` is higher in “hERG current change (%, negative = inhibition) at 10uM” value: -6.26% for the first, 17.4% for the second.

First: CSCCC(NC(=O)COc1ccccc1)C(=O)Nc1ccc(C)cc1 (centres unmarked)
Second: CCOC(=O)C(NC(C)=O)C(=O)Nc1ccc(C(C)C)cc1 (centres unmarked)
The “hERG current change (%, negative = inhibition) at 10uM” value of the first is lower: -3.07% for the first, 14.9% for the second.

Compared with `COC(=O)NCC(c1ccco1)N1CCN(c2ccccc2)CC1` (centres unmarked), `C/C(=N\NC(=O)CNC(=O)c1ccccc1F)c1ccco1` is lower in “hERG current change (%, negative = inhibition) at 10uM” value: 7.73% for the first, 5.9% for the second.

Going from `CCN1CCN(c2nc3ccccc3n3cnnc23)CC1` to `COc1ccc(Cl)cc1NC(=S)N1CCN(c2ncccn2)CC1`, the “hERG current change (%, negative = inhibition) at 10uM” value rises from -14.8% to 13.6%.

Going from `CC1=C(C)C(=O)OC(C(C)C2CCC3C4CC=C5CC(OC6OC(COC7OC(CO)C(O)C(O)C7O)C(O)C(O)C6O)CC(O)C5(C)C4CCC23C)C1` (centres unmarked) to `O=C(c1cc(COc2c(F)cccc2F)on1)N1C[C@H]2CC[C@H]1C2`, the “hERG current change (%, negative = inhibition) at 10uM” value falls from -3.93% to -12.9%.

Going from `CSc1nnc(CSc2cc(C)nc(N(C)C)n2)o1` to `Cc1ccc2nc(SCC(=O)c3cc(C)n(C)c3C)[nH]c2c1`, the “hERG current change (%, negative = inhibition) at 10uM” value rises from -17.3% to -9.77%.

Compared with `C=CCN1C=C2C(=O)C(C)(OC(=O)c3cnc4ccccc4n3)C(=O)C=C2C=C1/C=C/COC` (centres unmarked), `CCOc1ccccc1Nc1nc(-c2sc(NC(=O)c3ccco3)nc2C)cs1` is higher in “hERG current change (%, negative = inhibition) at 10uM” value: -6.07% for the first, 16.1% for the second.

Going from `COc1cc2c(cc1NS(=O)(=O)N1CCCCC1)oc1ccccc12` to `COc1ccc(C(=O)C2CCCN(Cc3ccccn3)C2)c(OC)c1` (centres unmarked), the “hERG current change (%, negative = inhibition) at 10uM” value falls from 1.96% to -55.7%.

Compared with `COc1cccc(/C=N/n2cnc3cc(C)c(C)cc32)c1OC`, `COc1cc(/C=N/N=C/c2cc(OC)c(O)c(OC)c2)cc(OC)c1O` is lower in “hERG current change (%, negative = inhibition) at 10uM” value: 18.8% for the first, 14.6% for the second.

Going from `CCc1ccc2[nH]c(C(=O)Nc3ccc(F)cc3Br)cc2c1` to `O=c1ccc(NS(=O)(=O)c2ccccc2Cl)cn1Cc1ccc(Cl)c(Cl)c1`, the “hERG current change (%, negative = inhibition) at 10uM” value falls from 25.3% to -1.32%.

First: O=C(CCc1ccc(S(=O)(=O)N2CCOCC2)cc1)Nc1ccc2ccccc2c1
Second: C/C=C/C=C/C(=O)Nc1cccc(C2=NOC3(C2)C[C@H](C(N)=O)N(C(=O)CC(c2ccccc2)c2ccccc2)C3)c1 (some centres unmarked)
The “hERG current change (%, negative = inhibition) at 10uM” value of the first is lower: -13.8% for the first, 15.7% for the second.

Compared with `CC1=C(C#N)C(c2cccnc2)C2=C(CCCC2=O)N1` (centres unmarked), `O=C(COC(=O)c1cccnc1Cl)NCc1ccco1` is higher in “hERG current change (%, negative = inhibition) at 10uM” value: -3.67% for the first, 34.7% for the second.

Going from `O=C(CN1CCCCCCC1)Nc1cccc(Cl)c1Cl` to `O=c1c(C(c2ccccc2)c2c(O)nc3n(c2=O)CCCS3)c(O)nc2n1CCCS2`, the “hERG current change (%, negative = inhibition) at 10uM” value falls from 29.8% to 13.9%.

Compared with `CC(=O)/C=N/Nc1ccccc1`, `CC1Cc2ccccc2N1C(=O)COC(=O)Cn1nnc(-c2ccccc2)n1` (centres unmarked) is higher in “hERG current change (%, negative = inhibition) at 10uM” value: -10.8% for the first, 5.15% for the second.

Going from `CC(C)(C)OC(=O)CC[C@@H](C(=O)N1CCN(C(=O)OC(C)(C)C)CC1)n1cc(C(CO)NC(=O)OC(C)(C)C)nn1` (some centres unmarked) to `CCOC(=O)C(=CNCC(=O)O)C(=O)OCC`, the “hERG current change (%, negative = inhibition) at 10uM” value falls from 14.1% to -3.44%.
